Measurements reported in ChEMBL document CHEMBL4888484, “Replenishing the malaria drug discovery pipeline: Screening and hit evaluation of the MMV Hit Generation Library 1 (HGL1) against asexual blood stage Plasmodium falciparum ,using a nano luciferase reporter read-out” (2022).
Out of some 150,000 compounds screened, about 540 (0.36%) showed an effect of 50% or more. This is one part of the list.

Tested on: Plasmodium falciparum
Test: Primary screen in NF54 nanoGlo assay, in single point, at 2uM, 72h; a lower Z score goes with more inhibition
Type: functional, Erythrocyte
Conditions: timepoint 72 hour

Row | SMILES | % Inhibition [%] | Z score
1 | Cc1nn(C)c(Oc2cccnc2)c1CN1CCN(c2ccccc2)CC1 | -9 | 1.32
2 | CCC(C)c1cc(C(=O)N[C@H](C(=O)N2CCCC2)C(C)C)on1 (stereo not given in full) | -2 | 0.46
3 | CN1C(=O)C[C@H](C(=O)NCc2cccnc2N2CCOCC2)[C@H]1c1nccn1C | 2 | -0.37
4 | O=C(CCc1ccccc1)Nc1nc(-c2cccc3ccccc23)cs1 | -4 | 0.61
5 | C#CCCC1(CCC(=O)N2CCOC[C@H]2c2cccc(F)c2)N=N1 | -2 | 0.31
6 | CCc1nc2onc(C)c2c(=O)n1CC(=O)N(C)Cc1ccco1 | 5 | -0.72
7 | CC(C)O[C@H]1CN(CC(=O)NCCc2ccc(F)cc2)C[C@@H]1O | -5 | 0.73
8 | Cc1noc(C)c1CC(=O)N1CCC[C@H](C2OCCO2)C1 | -7 | 0.78
9 | CNC(=O)NC(=O)CN[C@@H](Cc1ccc(F)cc1)C(C)C | -10 | 1.05
10 | Cc1cc(NC(=O)C2CCN(c3nc4nc[nH]c(=O)c4s3)CC2)ccc1Br | 12 | -1.04
11 | Cc1nc(C(=O)N2C3C=CCC2CC3)cs1 (stereo not given) | -1 | 0.12
12 | CCOC(=O)CNC(=O)c1cnn2c1OCCC2 | -6 | 0.87
13 | Cc1ccc(C#N)nc1N1CCCN(CC(=O)N2CCCC2)CC1 | 9 | -1.39
14 | Cc1cc(C[C@H](C)Nc2ncnc3sc(C(=O)O)c(C)c23)[nH]n1 | 2 | -0.28
15 | COc1cccc(NC(=O)c2ccnc(-c3ccsc3)c2)c1 | -4 | 0.46
16 | FC1CNC(c2nc(-c3ccccn3)no2)C1 (stereo not given) | -6 | 1.17
17 | O=C(Nc1ccc(-n2cncn2)nc1)c1cc[nH]n1 | -13 | 2.4
18 | Cc1nc2n(n1)C[C@@H](NS(=O)(=O)Cc1ccccc1Cl)CC2 | -7 | 0.74
19 | CN(C)c1ccccc1NCc1cccc(F)c1 | -15 | 1.57
20 | Cc1cc(CN2C[C@@H](F)C[C@H]2CN(C)c2nnnn2C)on1 | -12 | 1.6
21 | COc1cccc(NC(=O)Cn2c3c(c(=O)n2-c2ccccc2)Cc2cccc(OC)c2O3)c1 | 7 | -1.41
22 | Cc1cc(-n2cc(C(=O)O)c3c2[C@@H](c2ccc(C(C)C)cc2)CC(=O)N3)no1 | -46 | 5.44

Row | SMILES | % Inhibition [%] | Z score
23 | Cn1nccc1NC(=O)Cn1cc(-c2ccc(-c3nc4ccccc4[nH]3)o2)cn1 | -10 | 1.28
24 | COc1ccccc1OCC(=O)NC(C)(C)C | 34 | -3.85
25 | Cc1oc(C)c(C(=O)N2CCOCC2)c1C | -15 | 1.54
26 | CC(CC(=O)N(C)C)NC1CCc2c(Br)cccc21 (stereo not given) | 7 | -0.65
27 | O=C(NCc1ccc(F)cc1F)C1CCN(c2cn[nH]c(=O)c2)CC1 | 3 | -0.55
28 | CN(C[C@H]1CCCCO1)C(=O)c1ccc(F)cc1Cl | 5 | -1
29 | CC(C)N1CCN2C(=O)c3ccc(-c4ccccc4)cc3OCC[C@@H]3CC[C@H](O)[C@@H](CNC(=O)[C@@H]2C1)O3 | -4 | 0.64
30 | CCOC1CC(N(C)C(=O)CCCc2nc(C)no2)C12CCCC2 (stereo not given) | -12 | 1.23
31 | CN1CCN(c2nc(N)nc(C(F)(F)F)n2)CCC1=O | -2 | 0.26
32 | O=C(CN1C(=O)CCC1=O)OC1CN(c2nc3ccccc3s2)C1 | 7 | -0.77
33 | O=C(NCc1cccnc1-c1ccco1)c1ccc(F)cc1 | -22 | 4.23
34 | O=C(NCCNC(=O)c1c(O)c(Cl)cc(Cl)c1Cl)c1ccco1 | -14 | 1.67
35 | Cn1ncnc1CCNC(=O)NC1CCCCC1Cc1ccccc1 (stereo not given) | -9 | 1.12
36 | CC#CCNc1cc(Cl)ccc1CS(C)(=O)=O | -8 | 1.58
37 | C#CCN[C@@H](CO)c1cc(F)c(F)c(F)c1 | -3 | 0.38
38 | C[C@@H](c1ccccc1)N1CCN(C(=O)c2nc3ccccc3s2)CC1 | -6 | 0.72
39 | CC(NC(=O)CN1C(=O)COc2ccc(Cl)cc21)C1CCCO1 (stereo not given) | 14 | -1.9
40 | O=C1CC[C@@H](c2ccccc2NC(=O)c2cccc3c2OCC3)N1 | 1 | -0.13
41 | O=C(CCCn1ccnc1)Nc1nc2ccc(Br)cn2n1 | 4 | -0.46
42 | Cc1oc(-c2nc(C#N)c(N3CCOCC3)o2)cc1S(=O)(=O)N1CCCCCC1 | 0 | 0.01
43 | CN(C(=O)CN1C(=O)c2cc(Cl)c(Cl)cc2C1=O)[C@H]1CCS(=O)(=O)C1 | 5 | -1.03
44 | N#CC1CCC(N2CCN(c3ccc(C(N)=O)cc3)CC2)C1 (stereo not given) | -9 | 1.27

Row | SMILES | % Inhibition [%] | Z score
45 | COC(=O)[C@@H]1CN(C(=O)Cc2ccon2)C[C@H]1c1ccc(Cl)cc1 | -2 | 0.46
46 | O=C(O)[C@@H](c1cccc(Cl)c1)N1CCC(Cc2nc(C3CCC3)no2)CC1 | -17 | 2.71
47 | Cc1ccc(CN(C)C(=O)Nc2cnns2)o1 | -8 | 1.03
48 | Cn1nccc1CNc1nc2cc(Cl)ccc2n1C | 6 | -1.12
49 | Cc1noc(C)c1CC(=O)N1CCC[C@H](Oc2ccncc2Cl)C1 | 0 | 0
50 | O=C(Nc1ccccc1OCC1CC1)N1CCN2CCC[C@H]2C1 | -7 | 0.99
51 | O=C(Nc1ccc(-n2nn[nH]c2=O)cc1)c1ccc(-c2ccccc2)[nH]1 | 1 | -0.18
52 | C#CCN1C(=O)[C@]2(CC(=O)Nc3c2cnn3-c2ccc(F)cc2)c2ccccc21 | 1 | -0.12
53 | O=C(C1CCC1)N1CCOc2ccc(N3CCCC3)cc2C1 | -2 | 0.32
54 | CC(C)O[C@@]1(C)C[C@H]1NC(=O)N[C@H]1CC[C@@H](C(=O)N2CCCCC2)C1 | -1 | 0.21
55 | Cc1ocnc1C(=O)N1CCC[C@H](n2cccn2)C1 | 0 | 0.02
56 | Cn1cc(-c2n[nH]cc2C(=O)Nc2ccc3[nH]ccc3c2)cn1 | 7 | -0.68
57 | CN1OCC(S(=O)(=O)N2CCN(Cc3ccccc3)CC2)C1c1cccc(F)c1F (stereo not given) | -8 | 1.54
58 | CCOC1CCN(C(=O)c2cc(C)ccc2N(C)C(C)C)CC1 | 1 | -0.15
59 | C[C@H](NC(=O)Cn1cnnn1)C(=O)N1CCC=C(c2ccccc2)C1 | -12 | 1.17
60 | Cc1nccn1CCC1CCN(C(=O)[C@H]2CCOc3ccccc3C2)CC1 | -5 | 0.56
61 | Cc1cc(C)cc(S(=O)(=O)N2CC(OCc3ccc(F)cc3Cl)C2)c1 | -11 | 2.07
62 | CC[C@H](NC(=O)C(C)(C)C)c1ccc(C)cc1C | 6 | -0.59
63 | Cc1ccc(-c2nc(C)c(Cc3ccccc3)c(N3CCN(S(=O)(=O)c4cc(Cl)ccc4Cl)CC3)n2)cc1 | 10 | -1.57
64 | O=C(Cn1cnc2ccccc2c1=O)c1ccc(-c2ccccc2)cc1 | 3 | -0.38
65 | Cn1cc(CN2CCC(CCCN3CCOCC3)CC2)c(-c2ccncc2)n1 | 5 | -0.62
66 | CC(C)=C1C2CCC1C1C(=O)N(c3nccs3)C(=O)C21 (stereo not given) | -4 | 0.53

Row | SMILES | % Inhibition [%] | Z score
67 | Cc1nc2sc([C@H](c3ccsc3)N3CCCCCC3)c(O)n2n1 | 7 | -0.88
68 | CC1(C)CC(=O)c2cc(NC(=O)Nc3cnn(CCF)c3)ccc2O1 | 9 | -1.26
69 | Cc1cn2c(C(=O)N3[C@@H]4CC[C@H]3CNC(=O)C4)csc2n1 | -2 | 0.37
70 | CCOc1nc2cc(C(=O)N3CC[C@H](COCCOC)C3)ccc2[nH]1 | -4 | 0.76
71 | Cc1cc(CN2CCN(C(=O)c3ccc4c(c3)CCCC4)CC2)on1 | -3 | 0.51
72 | Cc1cnc(CNc2ccccc2C(=O)NC2CC2)s1 | -6 | 0.56
73 | O=C1C[C@H](c2ccc(O)cc2)c2c(-c3ccccc3)nn(-c3cccc(F)c3)c2N1 | -5 | 0.53
74 | COc1cc(C(=O)NCc2ccc3c(c2)OCO3)on1 | 8 | -1.25
75 | O=C(CN1CCc2nc[nH]c2C12CCC2)NC(C1CC1)C1CC1 | -6 | 0.96
76 | C[C@]1(NC(=O)NCc2ccc(Br)cc2)CCOC1 | -6 | 0.51
77 | CCOC(=O)N1CCC(n2ccnc2-c2sccc2C)CC1 | -12 | 1.52
78 | CNS(=O)(=O)N1CC(N2CCN(C(=O)OC(C)(C)C)CC2)C1 | -11 | 2.14
79 | C=CCN=C(NCC(=O)NC1CCCCC1)NCc1ccco1 | -7 | 1.09
80 | C[C@H]1CCc2n[nH]c(C(=O)N(C)CCc3noc(C4CC4)n3)c2C1 | 6 | -0.88
81 | Cc1ccc(N[C@@H]2CC(C)Nc3ccc(C)cc32)cc1 (stereo not given in full) | -10 | 1.23
82 | O=C(Nc1cccc(C(F)(F)F)c1)N[C@H]1CO[C@H]2[C@@H]1OC[C@H]2OC(=O)Nc1ccc(Oc2ccccc2)cc1 | 35 | -3.93
83 | CC(C)C(=O)NCCc1csc(C2CCN(C(=O)Nc3cccc(F)c3)CC2)n1 | -10 | 1.89
84 | Cc1ncsc1CCN(C)Cc1cccc(C(=O)O)n1 | -3 | 0.44
85 | CC(C)N1CCO[C@@H](CC(=O)NCc2ccccc2C(F)(F)F)C1 | -16 | 1.75
